In all, about 33,000 sequences were measured (“E-score (-0.5 to 0.5)”: median about -0.016, highest 2% from about 0.32 on). The list shows a part of the results.
molecular target: T1, Stp1 (UniProt B3LFK1); experiment: PBM E-score (8-mer binding enrichment) (E-score (-0.5 to 0.5)); higher = stronger / more preferred TF binding; most listed sequences are background and not binding sites; conditions: protein concentration: 200 nM; construct: GST-full length
T1 sequence: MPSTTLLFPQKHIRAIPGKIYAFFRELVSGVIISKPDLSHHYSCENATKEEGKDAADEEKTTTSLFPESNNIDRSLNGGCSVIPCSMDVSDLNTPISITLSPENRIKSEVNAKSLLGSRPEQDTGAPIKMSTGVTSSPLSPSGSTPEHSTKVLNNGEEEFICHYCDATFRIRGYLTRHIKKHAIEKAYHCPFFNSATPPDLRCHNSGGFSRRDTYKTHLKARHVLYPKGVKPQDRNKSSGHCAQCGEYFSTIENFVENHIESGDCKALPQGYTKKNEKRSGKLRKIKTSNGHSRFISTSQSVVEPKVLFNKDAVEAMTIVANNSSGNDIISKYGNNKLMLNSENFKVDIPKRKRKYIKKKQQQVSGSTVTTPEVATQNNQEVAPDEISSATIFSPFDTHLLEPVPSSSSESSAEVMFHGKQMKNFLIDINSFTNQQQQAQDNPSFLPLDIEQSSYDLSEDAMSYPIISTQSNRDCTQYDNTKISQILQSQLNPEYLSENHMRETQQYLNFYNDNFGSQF
Summary of the method: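 GST-tagged yeast TFs (full-length or DNA-binding domain) were made by PURExpress in vitro transcription/translation and applied at about 100-200 nM to universal all-10-mer Agilent arrays. The arrays were made double-stranded by primer extension, on fresh or once-stripped slides. Bound protein was detected with fluorescent anti-GST, and scans were normalised with masliner. Each ungapped eight-base word, pooled with its reverse complement, received an E-score (modified Wilcoxon-Mann-Whitney statistic) from the Universal PBM Analysis Suite.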

Row | Sequence | PBM E-score
1 | GGCCTGAA | -0.011
2 | ACTTGTCG | -0.0579
3 | CAATCAAC | 0.15
4 | GGAAACCA | -0.233
5 | GAAGGACA | 0.0893
6 | ACAGCGTA | -0.104
7 | ACTCTACG | -0.081
8 | AGTGGGGC | -0.231
9 | GAAGTGCA | 0.0643
10 | TCACGTCA | -0.135
11 | TTTGCAAA | 0.129
12 | GTCTAGCA | -0.136
13 | AAGATAAT | 0.0995
14 | GCGGTCAA | 0.0834
15 | CCGCGGTC | -0.0134
16 | CATATTTA | 0.199
17 | GCCCTAGC | 0.00456
18 | ACGGTAAA | 0.0838
19 | ACTCCAAG | -0.0634
20 | TAAAGTGA | 0.135
21 | ACAATGCG | -0.0211
22 | ACAGTGTA | 0.0314
23 | ACCCTTGA | -0.193
24 | GAGTTGCC | 0.235
25 | AGAGCGAC | -0.213

Row | Sequence | PBM E-score
26 | AGATGACG | -0.0798
27 | AAAAACGC | 0.125
28 | AAGACGTC | -0.109
29 | CCTATGAG | -0.0357
30 | CCCTCGAG | -0.161
31 | CATCTCGC | 0.0407
32 | AGCTAGTC | -0.269
33 | AACTGTCA | -0.0285
34 | ACCTGCAG | -0.357
35 | AGTTGCGA | 0.0797
36 | ATCTAACG | 0.107
37 | AGAAGCAC | -0.164
38 | AATCTAGA | -0.112
39 | CGGACCGC | -0.025
40 | GGTGCTCA | -0.173
41 | AGATCAGA | -0.103
42 | CGTTCTCC | -0.116
43 | ACCTAAGC | -0.0624
44 | CGGATACC | 0.0583
45 | TGCCACCA | -0.137
46 | ACTGATAG | -0.0401
47 | ACGTTAAG | 0.0506
48 | AGTAGGAC | -0.113
49 | AGCCCTTC | -0.0562
50 | TTACGTAA | 0.00287

Row | Sequence | PBM E-score
51 | CAGCTGCA | 0.114
52 | CAAGTCTC | -0.32
53 | GCTGCGCC | 0.152
54 | CAACTAAG | -0.0282
55 | GAACCAAA | -0.147
56 | AGCATAAA | 0.0182
57 | ACCGAAAT | 0.0238
58 | AGCCACCC | -0.188
59 | AAAGGTAT | 0.0191
60 | AGCAGTCG | -0.237
61 | ACGTCCAC | -0.0391
62 | AGAACGAA | 0.148
63 | AGCCGTAC | 0.432
64 | CGAGCATC | -0.166
65 | TGAAGACA | 0.0418
66 | GATAAGAA | 0.216
67 | CCCGGCCA | -0.341
68 | CGCGCCGA | 0.362
69 | AGCCGACT | -0.122
70 | ACAAACAG | 0.0617
71 | TCTGGGCA | -0.189
72 | AGGCCACG | 0.0478
73 | TAGCGCGA | 0.16
74 | CGATTGAA | -0.0712
75 | CTACATGA | -0.196

Row | Sequence | PBM E-score
76 | CTGTTTGC | 0.0866
77 | CGATAGTA | -0.0416
78 | ACGGGAAC | -0.0529
79 | CTAGGCGA | 0.0424
80 | GACTTTAC | 0.0152
81 | ATTGTTCA | 0.105
82 | AGAAGGAA | -0.0319
83 | AGATAGCA | -0.0406
84 | AGCGTTAA | 0.0253
85 | ACGTGTTA | 0.116
86 | CCTGCTGC | -0.076
87 | ACTAAGCA | 0.00802
88 | AGGTTTCA | 0.00551
89 | GAAGTGTC | -0.0596
90 | ACTGAGTG | -0.00286
91 | ACCCGCGT | 0.11
92 | GGGGCAGA | -0.0961
93 | CATATACC | -0.135
94 | GTTTCGCA | -0.0969
95 | TACTATCA | 0.0875
96 | ACGCACCA | 0.189
97 | ATCAGAGA | -0.175
98 | CATTCTAA | 0.0982
99 | AATCACTC | 0.0783
100 | AAAACAGA | 0.0828

Row | Sequence | PBM E-score
101 | CGCTCGCA | 0.117
102 | CTTGATAA | 0.107
103 | GTCAGCAC | -0.117
104 | ACTCTGTC | -0.134
105 | ATACTTTC | -0.0221
106 | GCCACGAA | 0.0264
107 | CCCTCTCA | -0.314
108 | ACTCGAAG | 0.0164
109 | CCCCAAAC | -0.158
110 | CCCGAGTA | 0.0279
111 | TAATCCAA | 0.0564
112 | CCGCACTA | 0.162
113 | CTTCCTAA | -0.0988
114 | CCGAACCC | -0.279
115 | CGTGGGAG | -0.0189
116 | ACCCCCAT | -0.277
117 | ATATGTCC | -0.00048
118 | CCAATGAG | -0.166
119 | AGCTGTCG | -0.209
120 | ACAAGTTC | -0.0226
121 | GTCGACAA | -0.192
122 | TATACAAA | 0.192
123 | GGGCGTGA | -0.0128
124 | CCGAAGAG | -0.0038
125 | GCCGCTTA | 0.39

Row | Sequence | PBM E-score
126 | AACGGACC | -0.0968
127 | ACCGAGAG | -0.176
128 | GGAACTAA | 0.0415
129 | AGCCAGAT | 0.00579
130 | ATCACAGA | 0.0244
131 | AGGCAAAA | 0.344
132 | AATTACGC | -0.0818
133 | CTGACGGC | 0.0432
134 | CGGGTTCA | 0.0646
135 | CATATAAC | 0.138
136 | ACCCCACT | -0.243
137 | CACTTCCA | 0.0126
138 | AGCGCCTC | 0.389
139 | AGTCCACA | -0.0519
140 | ACAGTATG | -0.0585
141 | ACTCCGGG | -0.146
142 | CCCTTCGC | -0.0851
143 | TCTAGCCA | -0.00776
144 | AACAGTCG | -0.0033
145 | AAAGCAAC | 0.0791
146 | GGGGATAA | -0.313
147 | CAGATGTA | -0.0377
148 | AACATTAT | 0.0409
149 | AAGCACAG | 0.15
150 | GGTCTTCA | -0.153

Row | Sequence | PBM E-score
151 | CAAGCCGA | 0.0955
152 | AAATGTAT | 0.14
153 | GCAGCCGA | 0.0964
154 | GAGTGCCA | -0.0699
155 | ATAGAGAT | 0.0979
156 | ATCATATC | 0.127
157 | GACAATGA | -0.247
158 | AACACCCA | -0.259
159 | ACATTGCG | 0.176
160 | ATTCGTGA | 0.0249
161 | GCGCTGTA | 0.0568
162 | GCACGAAA | 0.326
163 | CGCTACTA | 0.0915
164 | GCCAAGTA | -0.156
165 | TGCTGACA | 0.02
166 | CGCAAAAA | 0.223
167 | CAAGAATC | 0.0699
168 | AACAACCG | 0.104
169 | AAATATAT | 0.218
170 | CAGGACAC | -0.141
171 | TATAATCA | 0.225
172 | ATCAACGA | 0.0653
